This is one part of the list.

The assay has as its system PF3D7_0420300 AP2 domain 1 (GST-tagged). The assay is described as follows: gcPBM binding intensity (ln(normalized median fluorescence intensity)); higher = stronger DNA binding. The essentials:
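DNA-binding domains from P. falciparum, fused to GST and produced in E. coli, were put on an Agilent 4 × 180k double-stranded probe array for 1 h in 1× PBS holding 1% milk, 0.2 mg/ml BSA, 0.5% salmon testes DNA and 0.03% Triton X-100. Probes were primer-extended, 36 bp long and drawn from intergenic genomic regions, with negative controls included. After Alexa488 anti-GST antibody detection and a 488 nm scan, binding intensity was set as the highest Masliner-normalised natural-log median intensity across replicate spots of either probe orientation.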
For the sequence “AAATTTTTATAATTATCACACATTGAATTGTGGTCT [CACACA_site4343]”, the “gcPBM binding intensity (ln)” value stood at 9.22.

On to “AACAATTATTGTAATGCATGCACTGAATATAGAAAG [TGCATGCA_site889]”, for which the “gcPBM binding intensity (ln)” value came to 9.37.

For “ATTCACAAATATATGGTGCATAATATATATATATAT [GTGCAC_site9674]”, the “gcPBM binding intensity (ln)” value came to 9.19.

As to “ATATTTTCCCTTTATAGGAGCACAAAAATTAAATGT [CACACA_negctrl_site1114]”, the “gcPBM binding intensity (ln)” value came to 9.06.

For the sequence “CAGATAAGATTTTGTGGTACTATTTATTAAATTAGA [XGTACX_site2644]”, the “gcPBM binding intensity (ln)” value was determined as 9.03.

In the case of “TTATATAACACGGGGAGGACACAAGAAATAAAGAGC [XGTACX_site2148]”, the “gcPBM binding intensity (ln)” value amounted to 9.96.

For the sequence “GCTAATAATAAAAGCATAATGAACAAACACCCAGTA [CACACA_negctrl_site806]”, the “gcPBM binding intensity (ln)” value stood at 9.73.

As to “TTTTTCTGTTTTTATAGCCTTCTCATAATACATAAA [TGCATGCA_negctrl_site355]”, the “gcPBM binding intensity (ln)” value came out at 9.22.

Take “TATAATAAATCGAACTGTACATATATATATATATAT [XGTACX_site7097]”: the “gcPBM binding intensity (ln)” value turned out to be 9.11.

Turning to “TATACGCAGAAACACACACACAAAAAAAAAAAAAAA [CACACA_site427]”, the “gcPBM binding intensity (ln)” value is 9.71.

Regarding “ATTCGGATCTATAAGTGTACACAATCTAGCGAAAAG [XGTACX_site3088]”, the “gcPBM binding intensity (ln)” value worked out at 9.15.

As for “TTTATTCAAATATAATGTACTTTCTACAAATTCAAT [XGTACX_site8119]”, the “gcPBM binding intensity (ln)” value is 8.99.

For the sequence “CATATATAAATATATACACACATATATATATATATA [CACACA_site1365]”, the “gcPBM binding intensity (ln)” value came out at 9.23.

In the case of “ATTTTTTTTGCTAAGTGTACACAAATGTTTATTAAT [XGTACX_site7440]”, the “gcPBM binding intensity (ln)” value is 9.42.

With “TTTATTAAGAAACACACACACACACCCAAAATAAAA [CACACA_site242]”, the “gcPBM binding intensity (ln)” value came to 10.

Regarding “TATAAACAAAACAAAACATGCATAATACTATAAATT [TGCATGCA_site333]”, the “gcPBM binding intensity (ln)” value turned out to be 9.71.

As for “TAATTAACTTTATATGCATGTTAAAAATGTTATAAG [TGCATGCA_site761]”, the “gcPBM binding intensity (ln)” value was determined as 8.97.

“CTTTATTATAAGATTACACACATGTGTTCTAATTTA [CACACA_site7479]”: the “gcPBM binding intensity (ln)” value was 9.38.

Take “AACAAAATAAAAAGTAATCTTATTTATTAAAATTTT [CACACA_negctrl_site419]”: the “gcPBM binding intensity (ln)” value worked out at 9.09.

“TTTTGGTTAATTCCCCCCATTACATTATGTCATGTC [CACACA_negctrl_site229]”: the “gcPBM binding intensity (ln)” value was 9.81.

As for “TTTCATTTTTTTACATGTACGCAAAAGTGTGTAGTT [XGTACX_site6582]”, the “gcPBM binding intensity (ln)” value was 9.3.

In the case of “TAATACTTATATAAAGGTACACAATTTAACCGAATG [XGTACX_site7173]”, the “gcPBM binding intensity (ln)” value turned out to be 9.25.

For “GTAAATATTCATATATGTACTTATGATATTTGCTAA [XGTACX_site6828]”, the “gcPBM binding intensity (ln)” value was 8.91.

As for “CTTCCTTAGGAATGTACACACATATAAAATATGTTG [CACACA_site6355]”, the “gcPBM binding intensity (ln)” value came out at 9.35.

For the sequence “AAGAAAGAGTTCTGTTGTACAAAATATTAATATGTA [XGTACX_site7213]”, the “gcPBM binding intensity (ln)” value was 9.22.

For the sequence “ACATATATATATATATATTGATTTATTTATTTCCCT [CACACA_negctrl_site659]”, the “gcPBM binding intensity (ln)” value was 9.18.

Turning to “ATATATATATATAAATGTACAAAAATATATATGTAA [XGTACX_site4531]”, the “gcPBM binding intensity (ln)” value turned out to be 9.36.

On to “CTATTTAAAATATGAACACACATTATTTGTTTTAGA [CACACA_site2713]”, for which the “gcPBM binding intensity (ln)” value was 9.2.

In the case of “ATATCATTATATAGTTGTACATATTTATTTATTTAT [XGTACX_site8995]”, the “gcPBM binding intensity (ln)” value amounted to 9.48.

For the sequence “AATATAGGAATATGCACACATATATACCTACATACA [CACACA_site4939]”, the “gcPBM binding intensity (ln)” value was 9.51.

As to “AAAAAAAAAAATACTAGTACGTAAAATTATATAAAT [XGTACX_site3019]”, the “gcPBM binding intensity (ln)” value stood at 9.47.

As for “ATTTCCCATACACGTTGTACAATGTAGAGAAAGTAT [XGTACX_site4586]”, the “gcPBM binding intensity (ln)” value was found to be 9.08.

As for “GATATGTGTATAATATGTACATATATATATATATAT [XGTACX_site6531]”, the “gcPBM binding intensity (ln)” value was 9.3.

For the sequence “TTTTTGTCTGCATACGCACACACGTGGACCATCTTA [CACACA_site8303]”, the “gcPBM binding intensity (ln)” value was determined as 9.6.

On to “AAAGAAAGAAAACACACACACATATATATATATCAA [CACACA_site3743]”, for which the “gcPBM binding intensity (ln)” value was 10.1.

For “TATATATATATATGTACACACACACCGATAAATAAA [CACACA_site8041]”, the “gcPBM binding intensity (ln)” value was 9.99.

With “TACCACTTTCGAAGTAGTACATGGCTTTTTTTTTTT [XGTACX_site8379]”, the “gcPBM binding intensity (ln)” value turned out to be 9.46.

Turning to “TGTATGTTAAATACAACACACAAAAAAAAACAAGTT [CACACA_site4324]”, the “gcPBM binding intensity (ln)” value was found to be 9.65.

On to “ATATATATATGTGTGTGTACATATGATTTCGCACTT [XGTACX_site4449]”, for which the “gcPBM binding intensity (ln)” value turned out to be 9.8.

As for “TATACAGATAAATACACACACATATATATATATATA [CACACA_site4178]”, the “gcPBM binding intensity (ln)” value was found to be 9.52.

With “GTTATAATTTAGTCAAGTACATGCGTATGTATATTC [XGTACX_site3763]”, the “gcPBM binding intensity (ln)” value worked out at 9.23.

As for “CACAGAAATATTCTTATACACACTGTTCTTATATTC [CACACA_site288]”, the “gcPBM binding intensity (ln)” value was found to be 9.45.

Take “TAATATATATTATATACACACATATATATATATATA [CACACA_site428]”: the “gcPBM binding intensity (ln)” value came out at 9.38.

Consider “TTTTACGTGAGTAATACACACATATAAGTTTATATA [CACACA_site4120]”, for which the “gcPBM binding intensity (ln)” value stood at 9.09.

Turning to “TATAACTTTTTTAATACACACAAATATTTATTTATA [CACACA_site7425]”, the “gcPBM binding intensity (ln)” value is 9.22.

“GGCATACACGAACACACACACACACGCACATATATA [CACACA_site6426]”: the “gcPBM binding intensity (ln)” value was 10.3.

With “TTACATGTAAAAGGTACACACATTAGATATACAAAT [CACACA_site6651]”, the “gcPBM binding intensity (ln)” value amounted to 9.71.

As to “AATACTCAAAAGAATCGTACAAACAACACTCCCACG [XGTACX_site7564]”, the “gcPBM binding intensity (ln)” value is 9.4.

Regarding “TATCATACCTTTTAATGTACACACATTTCTTTTTTG [XGTACX_site1655]”, the “gcPBM binding intensity (ln)” value amounted to 9.75.

For the sequence TATAAATTAAAATCAGTGCATATTTTGAAAAACCTC, the “gcPBM binding intensity (ln)” value amounted to 9.27.

Regarding “TGAAATAACCCATGTGCATGCACTTCAATAACTGAA [TGCATGCA_site1041]”, the “gcPBM binding intensity (ln)” value was 9.26.

Turning to “ATATTATTATTAGTTTCACACATTTAATGAAACTAA [CACACA_site5677]”, the “gcPBM binding intensity (ln)” value is 9.03.

Regarding “TATAAATTATAAATTGCACACATATTTTTATATTTA [CACACA_site8974]”, the “gcPBM binding intensity (ln)” value was found to be 9.32.

For the sequence “ATTACCATATAAAACACACAAACATACATACATACA [CACACA_site3729]”, the “gcPBM binding intensity (ln)” value was 9.64.

With “TATATATATATATATTGTACATATTAATATTAGAAA [XGTACX_site8923]”, the “gcPBM binding intensity (ln)” value worked out at 9.1.

Regarding “TGGAGGTCAGTTCACAGTACCCAGAAACTCTACGAG [XGTACX_site2007]”, the “gcPBM binding intensity (ln)” value is 8.76.

Source of the values: the supplement of paper PMC11417369.
